# From PubChem BioAssay AID1346428 (National Center for Advancing Translational Sciences (NCATS), 2018)
# Values joined by “and” are separate entries in the source; they are usually repeats but may differ in a detail not shown here. Identical values can stand only once. Screen size: about 48,000 compounds; about 1,200 (2.5%) were called active. Roughly 2% stayed inconclusive and do not appear here.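 How the source made its calls: active means activation of at least 60% and not above a set upper limit (about 1 call in 100 departs from these limits); inconclusive means activation of 40% to 60%, or above that upper limit; inactive means activation under 40%.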 The list shows a part of the results.
# Molecular target: Probable G-protein coupled receptor 32 (Homo sapiens) (UniProt O75388)
# UniProt O75388, sequence (O75388 whole entry, looked up): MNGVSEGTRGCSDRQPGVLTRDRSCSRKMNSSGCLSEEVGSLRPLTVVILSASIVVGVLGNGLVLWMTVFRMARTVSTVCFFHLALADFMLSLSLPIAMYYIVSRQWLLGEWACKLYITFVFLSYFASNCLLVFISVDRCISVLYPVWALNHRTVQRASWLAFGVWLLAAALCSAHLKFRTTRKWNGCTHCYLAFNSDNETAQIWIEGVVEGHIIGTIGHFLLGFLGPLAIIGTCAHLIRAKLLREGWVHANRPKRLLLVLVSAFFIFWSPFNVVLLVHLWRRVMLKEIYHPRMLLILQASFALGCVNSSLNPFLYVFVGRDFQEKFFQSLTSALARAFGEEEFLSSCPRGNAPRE
# Experiment: qHTS for Agonists of Human Resolvin D1 Receptor DRV1
# Settings: CHO-K1 GPR32 beta-arrestin PathHunter luminescence, 90 min; at 76.9 µM; stronger effect = higher value; zero percent set by DMSO-only wells
# Source text: Endogenous resolution of inflammation is known to be transduced through various GPCRs and their natural mediators of lipid nature. Resolvin D1 (RvD1) is one of the active players in resolution of acute inflammation through regulation of anti-inflammatory pathways; it is known to enhance phagocytosis of human macrophages, limits neutrophils infiltration, etc. […] The search for GPR32-activating small molecules with anti-inflammatory effects similar to its natural omega-3 derivative ligand in order to use them as research tools for further studies of inflammation and its resolution was the goal of this screening project. For primary screening assay, we used CHO-K1 GPR32 beta-arrestin cell line (DiscoveRx, #93-0321C2A) and the PathHunter(R) beta-Arrestin Assay (DiscoveRx) which measures recruitment of beta-arrestin to the GPR32 and generates chemiluminescent signal. These engineered cells stably transfected with GPR32 co-express GPR32-fused small 42-amino acid fragment of beta-Gal called ProLinktrade mark, and […] -tagged beta-Arrestin fusion protein. When GPR32 is activated by a ligand, it stimulates binding of beta -Arrestin to ProLink-tagged GPR32, and two parts of beta-Gal complement forming a functional enzyme. Upon substrate (PathHunter(R) Detection reagent) addition, beta-Gal hydrolyzes it and generates a chemiluminescent signal.
# The cells were thawed and plated in thawing media containing F-12 HAM (Invitrogen, #11765-054), 10% FBS (Invitrogen, #10082), 1x Glutamine, and 1x Pen/Strep onto the 175-mm flask for 24 hours. Then, thawing media was replaced with Growth media which contains 800microg/mL Geneticin (Invitrogen, #10131) and 300microg/mL Hygromycin B (Invitrogen, #10687) in addition to described above. For the assay, the cells were harvested at ~80% confluent stage with Cell Dissociation buffer (Gibco, #13151), and seeded at 2,500 cells/ 3microL/well in assay media (PathHunter(R) Cell Plating Reagent, DiscoverX, #93-0563R1B) using MultiDrop Combi dispenser (Thermo Scientific, Logan, UT) onto white solid bottom tissue culture-treated 1536-well plates (Greiner # 789173-F) and allowed to attach overnight at 37 degrees C, 95% humidity, 5% CO2, . Next, 23nL/well of compound solutions in DMSO were added with a Pin Tool (Kalypsis, San Diego, CA) to the assay plates. As the basal control (EC0), 23 nL/well of DMSO was used on each plate. The cells were incubated in the presence of compounds or DMSO for 90 minutes at 37 degrees C, 5% CO2. Subsequently, 1.5microL/well of PathHunter(R) Detection Reagent prepared per the manufacturer's instructions was added to the assay plates with BioRAPTR FRDtrade mark dispenser (Beckman Coulter, San Francisco, CA) and incubated for 1 hour at ambient temperature prior to the measurement of the luminescent signal on ViewLux(R) uHTS Microplate Imager (Perkin Elmer, Waltham, MA).
row,Compound,activation
1,CCOC(=O)c1ccc(NC(=O)COCc2cc(-c3ccc4c(c3)OCO4)on2)cc1,inactive: -5.37%
2,CCN(CC)S(=O)(=O)c1ccc(C(=O)Nc2nc3c(Cl)cc(Cl)cc3s2)cc1,inactive: -8.47%
3,Cc1ccccc1C(=O)NCc1nc2cccnc2n1Cc1ccccc1,inactive: -19.5%
4,COc1cccc(CNC(=O)c2nn(-c3ccccc3Cl)nc2CO)c1,inactive: -15.6%
5,CC(C(=O)Nc1cc(C(F)(F)F)ccc1Cl)n1nnc2sc3c(c2c1=O)CCCC3 (centres undefined),inactive: -2.52%
6,Cc1ccc2oc(-c3ccc(C)c(NC(=O)c4ccc(C(C)(C)C)cc4)c3)nc2c1,inactive: 7.05%
7,CCOc1ccccc1C(=O)Oc1c(Sc2ccccc2)c(C)nn1C(C)(C)C,inactive: -3.26%
8,Cc1ccc(-c2csc(=Nc3ccccc3)n2Cc2ccc3c(c2)OCO3)cc1C,inactive: 13.8%
9,CCN1CCN(C(c2ccccc2)c2sc3nc(-c4ccco4)nn3c2O)CC1 (centres undefined),inactive: -6.93%
10,COc1ccc(S(=O)(=O)c2c(Nc3ccc(F)cc3)sc(C(=O)c3ccc4c(c3)OCO4)c2N)cc1,inactive: -12.1%
11,C[N+]1(CCCCC[N+]2(C)CCCC2)CCCC1,inactive: 0.996%
12,COc1ccc(N2CCN(C(=O)c3ccc4c(c3)N(Cc3ccc(F)cc3)C(=O)c3ccccc3S4=O)CC2)cc1 (centres undefined),inactive: -11.2%
13,COc1ccccc1C(=O)n1nc(-c2ccco2)nc1NCc1ccc(Cl)cc1,inactive: -31.7%
14,COc1ccccc1NC(=O)c1c(NCc2ccc(C)o2)sc2c1CCC(C)C2 (centres undefined),inactive: -4.19%
15,COCCc1nn2c(=O)cc(COC(=O)COc3ccc(F)cc3)nc2s1,inactive: -1.8%
16,COc1ccc(-c2cn3c(n2)sc2cc(C(=O)NCCCN4CCCCCC4)ccc23)cc1,inactive: -13.4%
17,CCCOC(=O)c1c(NC(=O)C2c3ccccc3Oc3ccccc32)sc2c1CCC(C)C2 (centres undefined),inactive: 9.99%
18,Cc1ccccc1-c1nc2cc(NC(=O)c3cccc(OCCC(C)C)c3)ccc2o1,inactive: 12%
19,CCC12CN3CC(C)(CN(C1)C3c1ccccc1C)C2=O (centres undefined),inactive: -3.78%
20,COc1ccc2c(c1)c1c(c(=O)n(-c3ccc(C)cc3)c(=O)n1CC(=O)N1CCCC1)n2C,inactive: -30.5%
21,CCOc1ccc(-n2ccn3c(CC(C)CC(=O)O)nnc3c2=O)cc1 (centres undefined),inactive: 14.8%

row,Compound,activation
1,COc1cc(NC(=O)c2ccc(-c3nc(COc4ccccc4)c(C)o3)cc2)cc(OC)c1,inactive: -17.4%
2,CCCCN(Cc1ccccc1)S(=O)(=O)c1cc(Br)cc2c1N(C(=O)C1CC1)CC2,inactive: -3.4%
3,CCOC(=O)N1CCC(NC(=O)c2ccc3c(c2)N(Cc2ccccc2)C(=O)c2ccccc2S3=O)CC1 (centres undefined),inactive: -7.99%
4,CC(=O)C1=C(c2ccc(Cl)c(Cl)c2)N(C(C)=O)n2c(nnc2C2CCCCC2)S1,inactive: -15.8%
5,O=C(CCc1nnc2n(Cc3ccccc3Cl)c(=O)c3ccccc3n12)Nc1ccc(F)cc1,inactive: -8.29%
6,CCCNC(=O)CCn1nc(-c2ccccc2)c2ccccc2c1=O,inactive: -22.9%
7,O=C(CSc1nnc(CNC(=O)c2ccccc2F)n1-c1ccccc1)Nc1ccccc1F,inactive: -8.61%
8,CCOc1ccc(OCC)c(NC(=O)c2cc(CN3CCOCC3)on2)c1,inactive: -6.43%
9,CCC(Cn1nnc2ccccc2c1=O)NC(=O)Nc1ccc(C)cc1 (centres undefined),inactive: -21%
10,Cc1ccc(S(=O)(=O)c2cnc(SC(C)C(=O)Nc3ccccc3)[nH]c2=O)cc1 (centres undefined),inactive: -13.9%
11,CCOC(=O)C1CCCN(C(=O)c2cccc(NC(=O)c3nsc4ccccc34)c2)C1 (centres undefined),inactive: -7.39%
12,Cc1ccc(NC(=O)CCNS(=O)(=O)c2ccc(Br)s2)cc1,inactive: 32%
13,CNCCCC1c2ccccc2C=Cc2ccccc21,inactive: 23.5% and inactive: -2.89%
14,O=C(Nc1ccccc1Cl)c1cc(S(=O)(=O)N2CCC3(CC2)OCCO3)ccc1F,inactive: -10.5%
15,COc1cc(C2C(=O)N(C3CCCCCC3)CC(=O)N2CCC2=CCCCC2)ccc1OC(C)C (centres undefined),inactive: -12%
16,O=C(NCCS(=O)(=O)N1CCN(c2ccccc2F)CC1)C(c1ccccc1)c1ccccc1,inactive: -19.7%
17,CCn1cc2nc(SCc3ccccc3Cl)n(CCc3ccccc3)c(=O)c2n1,inactive: 44.3%
18,CCOc1ccc(N(CC)S(=O)(=O)N2CCCC(C(=O)Nc3ccc(OC)c(OC)c3)C2)cc1 (centres undefined),inactive: -7.81%
19,Cc1ccc(-c2nc(NC(=O)CSc3ncnc4sc5c(c34)CCC(C)C5)ns2)cc1 (centres undefined),inactive: -5.58%
20,COc1ccc2c(c1)c(=O)c(S(=O)(=O)c1ccc(Cl)cc1)cn2C,inactive: -9.38%
21,Cc1ccccc1CNC(=O)C1CCN(c2nnc(-n3c(C)ccc3C)s2)CC1,inactive: -24%

row,Compound,activation
1,CCCCCCC[N+](CC)(CC)CCCCc1ccc(Cl)cc1,active: 86.6%
2,Cc1cccc(NC(=O)N2CCC(CN3CCC(C)CC3)CC2)c1C,inactive: -0.0741%
3,CC(=O)Nc1c(C)nn(-c2ccccc2)c1N1CCC(C(=O)Nc2ccc(F)cc2Cl)CC1,inactive: -9.66%
4,Cc1ccc2c(c1)C(c1ccccc1)N(C(=O)c1ccccc1F)CC(=O)N2 (centres undefined),inactive: 11.6%
5,CCc1cccc(CC)c1NC(=O)C(CC)n1nc(C)n2c(cc3cc(C)ccc32)c1=O (centres undefined),inactive: 0.249%
6,CCCn1c(SCc2nc(-c3cc(OC)ccc3OC)no2)nnc1-c1ccc(Cl)cc1,inactive: -14.1%
7,CCOC(=O)c1cccc(NC(=O)c2cc3cc4ccc(C)cc4nc3o2)c1,inactive: 13.2%
8,Cc1ccc(-n2ncc(C(=O)Nc3ccc4c(c3)OCCO4)c2C2CCN(C(=O)OC(C)(C)C)CC2)cc1,inactive: -18.8%
9,Cc1ccccc1-c1noc(-c2cc3ccccc3oc2=O)n1,inactive: -16.5%
10,COc1ccc(Br)cc1CNC(=O)CSc1cc(=O)n(C)c2ccccc12,inactive: -8.93%
11,CCN1CCN(c2csc3ccc(C)cc3c2=O)CC1,inactive: -32%
12,CC1CCN(S(=O)(=O)c2ccc3c(c2)oc(=O)n3CC(=O)NC(C)c2ccccc2)CC1 (centres undefined),inactive: 30.9%
13,CCCc1ccc(OC(C)C(=O)Nc2sc3c(c2C(=O)OC)CCCCC3)cc1 (centres undefined),inactive: 7.34%
14,Cc1ccc(-c2nc(CS(=O)(=O)CC(=O)N3CCN(c4cccc(C)c4C)CC3)c(C)o2)cc1,inactive: -2.49%
15,Cn1c(SCC(=O)N2CCCc3ccccc32)ncc(C(=O)Nc2ccc(F)cc2)c1=O,inactive: -3.42%
16,CCOC(=O)c1cnc2ccc(OC)cc2c1NCCc1ccc(OC)c(OC)c1,inactive: -20.9%
17,CSc1nc(Nc2cccc(C)c2)c(C#N)c(-c2ccccc2)n1,inactive: 3.61%
18,CNc1c(NC(=O)c2cc(OC)cc(OC)c2)c(=O)oc2ccccc12,inactive: 9.28%
19,O=C(O)CC(O)C(=O)O (centres undefined),inactive: 23.4%
20,Cc1cccc(CNC(=O)c2cccc(NC(=O)N3CCSc4ncccc43)c2)c1,inactive: -1.03%
21,CCCCNC(=O)c1nn(-c2ccc(C)cc2)c(=O)c2c1c1ccccc1n2C,inactive: 9.57%

row,Compound,activation
1,Cc1ccc2[nH]c(=O)c3cc(C(=O)N(C)c4ccc(Br)cc4)sc3c2c1,inactive: -7.84%
2,Cc1nnc(NC(=O)CSc2nc3c([nH]c4ccccc43)c(=O)n2-c2ccc(Cl)cc2)s1,inactive: 40.4%
3,Cc1cc(C)cc(NC(=O)c2cc(S(=O)(=O)NCCC3=CCCCC3)ccc2F)c1,inactive: -18%
4,Cc1ccc(NC(=O)c2cc(S(=O)(=O)N3CCCCC3)c[nH]2)cc1N(C)C,inactive: 0.797%
5,CC(=O)Nc1cc(C(=O)NCc2ccccc2Cl)ccc1Sc1ccc(F)cc1,inactive: -13.8%
6,Cc1cccc(C(=O)Nc2ccc3oc(-c4cccc5c(Br)cccc45)nc3c2)c1,inactive: 15.6%
7,COc1ccc(CCNCc2c(C(=O)O)c(C)n(Cc3c(F)cccc3Cl)c2C)cc1OC,inactive: 16.9%
8,Cc1cc(OCC(=O)Nc2ccc(C(=O)OC3CCCCC3)cc2)cc(C)c1Cl,inactive: -3.13%
9,COc1ccc2c(c1)CC(C(=O)NCc1ccc(F)cc1)CO2 (centres undefined),inactive: -7.5%
10,CCc1ccc(NC(=O)C2CCN(c3nc(-c4ccc(OC)cc4)no3)CC2)cc1,inactive: -7.22%
11,CCOc1ccc2nc(N3CCN(C(=O)c4ccc5c(c4)CCCC5)CC3)sc2c1,inactive: -2.68%
12,Cc1ccc(-c2cc(-c3ccc4c(c3)NC(=O)CO4)nc3c2COc2ccccc2-3)cc1,inactive: -22.7%
13,Cc1ccc2c(c1)C(=O)OC(C(=O)Nc1ncc(Cc3ccccc3Cl)s1)C2 (centres undefined),inactive: 1.79%
14,Cc1ccc(C(=O)Nc2c(C(=O)NC(C)(C)C)oc3ccccc23)cc1,inactive: -10.2%
15,CCOc1ccc2c(c1)c(=O)c(C(=O)c1ccccc1)cn2Cc1ccccc1,inactive: -1.12%
16,Cc1c(CCC(=O)NCCc2ccccc2)c(=O)oc2cc(O)ccc12,inactive: 37.2%
17,COc1ccc2c(c1)c1c(c(=O)n(-c3ccc(F)c(Cl)c3)c(=O)n1Cc1cccc(C)c1)n2C,inactive: -8.31%
18,Cc1ccc(-n2nc(C)c3nc(CCC(=O)Nc4cccc(C)c4C)c(=O)n(C)c32)cc1,inactive: 0.322%
19,Cc1cc(C)c2c(CC(=O)Nc3ccc(F)cc3)coc2c1,inactive: 23.2%
20,CCCS(=O)(=O)c1nc(S(=O)(=O)c2ccc(C)cc2)c(N(CC)CC)s1,inactive: -34.1%
21,CCOC(=O)c1ccc(NC(=O)CSc2c(C(C)C)cnc3c2c(=O)n(C)c(=O)n3C)cc1,inactive: -21.8%
